{"source": "the supplement of paper PMC9446081", "note": "In all, about 39,000 compounds went through this assay and about 220 (0.56%) showed activity. Some of the results follow.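 Note: static incubation at 37 °C against the wild-type strain, values averaged over two biological replicates.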"}
{"system": "Escherichia coli K-12 BW25113", "assay": "relative growth (OD600 normalised to plate interquartile mean) (fraction); higher = less growth inhibition, active = 0.2 or less", "details": "50 µM; LB; incubation time: overnight (16-24 h)"}
{"compound": "C[C@H](CO)N1C[C@H](C)[C@@H](CN(C)C(=O)Nc2ccccc2)OCCCC[C@H](C)Oc2ccc(NS(=O)(=O)c3cccs3)cc2C1=O", "relative growth": "inactive: 1.02"}
{"compound": "C[C@@H]1CN([C@@H](C)CO)C(=O)c2cc(NS(=O)(=O)c3cn(C)cn3)ccc2O[C@H]1CN(C)C(=O)NC1CCCCC1", "relative growth": "inactive: 1.01"}
{"compound": "COc1ccc(S(=O)(=O)Nc2ccc3c(c2)CC(=O)N([C@H](C)CO)C[C@H](C)[C@@H](CN(C)S(=O)(=O)c2cn(C)cn2)O3)cc1", "relative growth": "inactive: 1.01"}
{"compound": "COc1ccccc1C#Cc1cnc2c(c1)C(=O)N([C@H](C)CO)C[C@H](C)[C@H](CN(C)C(=O)CC1CC1)O2", "relative growth": "inactive: 1.02"}
{"compound": "Cc1cc(O)c(C(=O)/C=C/N(C)C)c(=O)o1", "relative growth": "inactive: 0.976"}
{"compound": "C[C@@H]1CCCCO[C@@H](CN(C)S(=O)(=O)c2ccc(F)cc2)[C@H](C)CN([C@H](C)CO)C(=O)c2cc(NC(=O)NC3CCCCC3)ccc2O1", "relative growth": "inactive: 1.02"}
{"compound": "C[C@@H]1CN([C@@H](C)CO)S(=O)(=O)c2ccc(C#CC3(O)CCCC3)cc2O[C@H]1CN(C)C(=O)c1ccncc1", "relative growth": "inactive: 0.993"}
{"compound": "OCc1c[nH]c2ccccc12", "relative growth": "inactive: 1.1"}
{"compound": "C[C@@H]1CN([C@H](C)CO)C(=O)Cc2cc(NC(=O)Nc3cccc4ccccc34)ccc2O[C@H]1CN(C)C(=O)Nc1cccc2ccccc12", "relative growth": "inactive: 1.05"}
{"compound": "COc1ccccc1-c1cnc2c(c1)C(=O)N([C@H](C)CO)C[C@H](C)[C@H](CN(C)C(=O)c1ccncc1)O2", "relative growth": "inactive: 1.01"}
{"compound": "Cn1cnc(S(=O)(=O)N2C[C@H](O)COC[C@@H]3O[C@H](CC(=O)NC4Cc5ccccc5C4)CC[C@H]32)c1", "relative growth": "inactive: 0.988"}
{"compound": "O=C(C1=C(O)C(=O)N(c2nccs2)[C@H]1c1cccc(Oc2ccccc2)c1)c1ccc2c(c1)OCCO2", "relative growth": "inactive: 1.01"}
{"compound": "COc1ccc(-c2coc3c(O)c(O)c(OC)cc3c2=O)cc1", "relative growth": "inactive: 1.07"}
{"compound": "CCCCOC(=O)[C@@H](N)CCC(=O)O", "relative growth": "inactive: 0.976"}
{"compound": "C[C@@H]1CN([C@H](C)CO)C(=O)Cc2cc(NC(=O)NC3CCCCC3)ccc2O[C@H]1CN(C)C(=O)Nc1cccc2ccccc12", "relative growth": "inactive: 0.963"}
{"compound": "CCCCC[C@@H](O)C[C@@H](O)CC(=O)O[C@@H](CCCCC)C[C@@H](O)CC(=O)OC[C@@H](O)[C@@H](O)[C@@H](O)[C@@H](O)CO", "relative growth": "inactive: 0.99"}
{"compound": "COCC(=O)Nc1ccc2c(c1)C(=O)N(C)C[C@@H](OC)[C@H](C)CN(Cc1ccccc1OC)[C@@H](C)CO2", "relative growth": "inactive: 1"}
{"compound": "C[C@@H]1CN([C@H](C)CO)S(=O)(=O)c2ccc(-c3cncnc3)cc2O[C@@H]1CN(C)C(=O)CN(C)C", "relative growth": "inactive: 0.992"}
{"compound": "CN1CCSC1=N", "relative growth": "inactive: 0.977"}
{"compound": "COC(=O)CC1C(C)(C)C(OC(C)=O)C2CC3=C4CC(=O)OC(c5ccoc5)C4(C)CCC3C1(C)C2=O", "note": "(stereo unspecified)", "relative growth": "inactive: 1.04"}
{"compound": "Cc1noc(C)c1S(=O)(=O)N(C)C[C@@H]1Oc2ccc(NS(=O)(=O)c3ccc(Cl)cc3)cc2CC(=O)N([C@@H](C)CO)C[C@H]1C", "relative growth": "inactive: 0.997"}
{"compound": "N#C[C@H]1N[C@@H](CO)[C@@H]1c1ccccc1", "relative growth": "inactive: 1"}
{"compound": "Cc1noc(C)c1NC(=O)N(C)C[C@H]1Oc2ccc(NC(=O)Nc3ccc(C(F)(F)F)cc3)cc2C(=O)N([C@H](C)CO)C[C@H]1C", "relative growth": "inactive: 0.979"}
{"compound": "C[C@@H]1CN([C@@H](C)CO)C(=O)c2cc(NC(=O)Nc3ccc(F)cc3)ccc2O[C@@H](C)CCCCO[C@@H]1CN(C)Cc1ccncc1", "relative growth": "inactive: 0.93"}
{"compound": "COCCNC(=O)C[C@@H]1C[C@H]2c3cc(NC(=O)CN(C)C)ccc3O[C@H]2[C@H](CO)O1", "relative growth": "inactive: 0.978"}
{"compound": "Cc1noc(C)c1NC(=O)Nc1ccc2c(c1)CC(=O)N([C@@H](C)CO)C[C@H](C)[C@@H](CN(C)C(=O)NC(C)C)O2", "relative growth": "inactive: 1.01"}
{"compound": "C[C@@H]1CN([C@@H](C)CO)C(=O)Cc2cc(NC(=O)CCCCCC(=O)Nc3ccccc3N)ccc2O[C@H]1CN(C)C(=O)Nc1ccc(C(F)(F)F)cc1", "relative growth": "inactive: 0.995"}
{"compound": "C[C@H](CO)N1C[C@H](C)[C@H](CN(C)C(=O)Cc2ccncc2)Oc2cc(C#CC3(O)CCCC3)ccc2S1(=O)=O", "relative growth": "inactive: 0.971"}
{"compound": "C[C@@H](Cc1c[nH]c2ccccc12)NC(=O)CN", "relative growth": "inactive: 0.997"}
{"compound": "Cc1noc(C)c1NC(=O)N(C)C[C@H]1OCCCC[C@@H](C)Oc2ccc(NC(=O)Nc3ccc(F)cc3)cc2C(=O)N([C@@H](C)CO)C[C@H]1C", "relative growth": "inactive: 0.997"}
{"compound": "C[C@H](CO)N1C[C@H](C)[C@@H](CN(C)C(=O)NC2CCCC2)Oc2cc(-c3cccnc3)ccc2S1(=O)=O", "relative growth": "inactive: 1"}
{"compound": "C[C@@H]1CN([C@H](C)CO)C(=O)Cc2cc(NS(=O)(=O)c3cn(C)cn3)ccc2O[C@@H]1CN(C)CC1CCCCC1", "relative growth": "inactive: 0.987"}
{"compound": "COc1ccc(NC(=O)Nc2ccc3c(c2)C(=O)N([C@@H](C)CO)C[C@@H](C)[C@H](CN(C)C(=O)NC2CCCCC2)OCCCC[C@@H](C)O3)cc1", "relative growth": "inactive: 1"}
{"compound": "C[C@@H]1CN([C@@H](C)CO)C(=O)Cc2cc(NC(=O)Cn3cnnn3)ccc2O[C@H]1CN(C)Cc1ccccc1", "relative growth": "inactive: 0.998"}
{"compound": "CO[C@@H]1CN(C)C(=O)c2cc(NC(=O)C3CCCC3)ccc2OC[C@@H](C)N(C(=O)Nc2ccc(C(F)(F)F)cc2)C[C@H]1C", "relative growth": "inactive: 0.986"}
{"compound": "CS(=O)(=O)OCCCCOS(C)(=O)=O", "relative growth": "inactive: 0.892"}
{"compound": "Cc1noc(C)c1S(=O)(=O)N(C)C[C@@H]1Oc2ccc(NS(=O)(=O)c3cn(C)cn3)cc2CC(=O)N([C@@H](C)CO)C[C@@H]1C", "relative growth": "inactive: 0.994"}
{"compound": "C[C@H]1CN([C@@H](C)CO)C(=O)c2cc(C#Cc3ccncc3)cnc2O[C@H]1CN(C)C(=O)c1ccccc1F", "relative growth": "inactive: 0.974"}
{"compound": "C[C@@H]1CN([C@H](C)CO)C(=O)c2cc(NC(=O)C3CC3)ccc2O[C@@H]1CN(C)C(=O)Nc1ccc2c(c1)OCO2", "relative growth": "inactive: 0.993"}
{"compound": "Cc1ccc(C(=O)O)c(=O)n1C", "relative growth": "inactive: 1.02"}
{"compound": "O=C(O)c1ccc(CNc2cn[nH]c(=O)n2)cc1", "relative growth": "inactive: 1"}
